# Measurements from the supplement of paper PMC8728848.
# This is one part of the list.
# B1: HHA (Hippeastrum hybrid) (protein)
# chain: MQQDCNLVLYDVDKPIWASNTGGLARDCHLNMQSDGNLVVYAPRNQVIWASNTQGENGNYVCILQKDRNVVIYGTARWATGTNIHGAGIVGVPGSAPQNTTAEMIKLVRKYLITK
# Columns and labels:
# Experiment in all cases: glycan array binding signal (z-score within array); higher = stronger binding
# Conditions in all cases: glycan notation: IUPAC condensed, linker removed
# [1] = target: GlcNAc(b1-3)Gal(b1-4)GlcNAc(b1-3)Gal(b1-4)GlcNAc(b1-2)Man(a1-3)[GlcNAc(b1-3)Gal(b1-4)GlcNAc(b1-3)Gal(b1-4)GlcNAc(b1-2)Man(a1-6)]Man(b1-4)GlcNAc(b1-4)[Fuc(a1-6)]GlcNAc
# Procedure, shortened: (§1)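 The binding signal is a Z-score computed within each array and averaged over linkers. Arrays of the same protein sequence at different concentrations or buffers were also averaged together. Data originate from 3228 arrays in the Consortium for Functional Glycomics database, kept only where the protein sequence was available.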
# [2] = target: GlcNAc(b1-3)Gal(b1-4)GlcNAc(b1-3)Gal(b1-4)GlcNAc(b1-2)[GlcNAc(b1-3)Gal(b1-4)GlcNAc(b1-3)Gal(b1-4)GlcNAc(b1-6)]Man(a1-6)[GlcNAc(b1-3)Gal(b1-4)GlcNAc(b1-3)Gal(b1-4)GlcNAc(b1-2)Man(a1-3)]Man(b1-4)GlcNAc(b1-4)[Fuc(a1-6)]GlcNAc
# Procedure, shortened: as §1
# [3] = target: GlcNAc(b1-3)Gal(b1-4)GlcNAc(b1-3)Gal(b1-4)GlcNAc(b1-3)Gal(b1-4)GlcNAc(b1-2)Man(a1-3)[GlcNAc(b1-3)Gal(b1-4)GlcNAc(b1-3)Gal(b1-4)GlcNAc(b1-3)Gal(b1-4)GlcNAc(b1-2)Man(a1-6)]Man(b1-4)GlcNAc(b1-4)GlcNAc
# Procedure, shortened: as §1
# [4] = target: GlcNAc(b1-3)Gal(b1-4)GlcNAc(b1-3)Gal(b1-4)GlcNAc(b1-3)Gal(b1-4)GlcNAc(b1-2)Man(a1-3)[GlcNAc(b1-3)Gal(b1-4)GlcNAc(b1-3)Gal(b1-4)GlcNAc(b1-3)Gal(b1-4)GlcNAc(b1-2)Man(a1-6)]Man(b1-4)GlcNAc(b1-4)[Fuc(a1-6)]GlcNAc
# Procedure, shortened: as §1
# [5] = target: GlcNAc(b1-3)Gal(b1-4)GlcNAc(b1-3)Gal(b1-4)GlcNAc(b1-3)Gal(b1-4)GlcNAc(b1-2)[GlcNAc(b1-3)Gal(b1-4)GlcNAc(b1-3)Gal(b1-4)GlcNAc(b1-3)Gal(b1-4)GlcNAc(b1-6)]Man(a1-6)[GlcNAc(b1-3)Gal(b1-4)GlcNAc(b1-3)Gal(b1-4)GlcNAc(b1-3)Gal(b1-4)GlcNAc(b1-2)Man(a1-3)]Man(b1-4)GlcNAc(b1-4)[Fuc(a1-6)]GlcNAc
# Procedure, shortened: as §1
# [6] = target: GlcNAc(b1-3)Gal(b1-4)GlcNAc(b1-3)Gal(b1-4)GlcNAc(b1-3)Gal(b1-4)GlcNAc(b1-3)Gal(b1-4)GlcNAc(b1-2)Man(a1-3)[GlcNAc(b1-3)Gal(b1-4)GlcNAc(b1-3)Gal(b1-4)GlcNAc(b1-3)Gal(b1-4)GlcNAc(b1-3)Gal(b1-4)GlcNAc(b1-2)Man(a1-6)]Man(b1-4)GlcNAc(b1-4)GlcNAc
# Procedure, shortened: as §1
# [7] = target: GlcNAc(b1-3)Gal(b1-4)GlcNAc(b1-3)Gal(b1-4)GlcNAc(b1-3)Gal(b1-4)GlcNAc(b1-3)Gal(b1-4)GlcNAc(b1-2)Man(a1-3)[GlcNAc(b1-3)Gal(b1-4)GlcNAc(b1-3)Gal(b1-4)GlcNAc(b1-3)Gal(b1-4)GlcNAc(b1-3)Gal(b1-4)GlcNAc(b1-2)Man(a1-6)]Man(b1-4)GlcNAc(b1-4)[Fuc(a1-6)]GlcNAc
# Procedure, shortened: as §1
# [8] = target: GlcNAc(b1-3)Gal(b1-4)GlcNAc(b1-3)Gal(b1-4)GlcNAc(b1-3)Gal(b1-4)GlcNAc(b1-3)Gal(b1-4)GlcNAc(b1-2)[GlcNAc(b1-3)Gal(b1-4)GlcNAc(b1-3)Gal(b1-4)GlcNAc(b1-3)Gal(b1-4)GlcNAc(b1-3)Gal(b1-4)GlcNAc(b1-6)]Man(a1-6)[GlcNAc(b1-3)Gal(b1-4)GlcNAc(b1-3)Gal(b1-4)GlcNAc(b1-3)Gal(b1-4)GlcNAc(b1-3)Gal(b1-4)GlcNAc(b1-2)Man(a1-3)]Man(b1-4)GlcNAc(b1-4)[Fuc(a1-6)]GlcNAc
# Procedure, shortened: as §1
# [9] = target: GlcNAc(b1-3)Gal(b1-4)GlcNAc(b1-3)Gal(b1-4)GlcNAc(b1-3)GalNAc
# Procedure, shortened: as §1
# [10] = target: GlcNAc(b1-3)Gal(b1-4)GlcNAc(b1-3)GalNAc
# Procedure, shortened: as §1
# [11] = target: GlcNAc(b1-3)Gal(b1-4)GlcNAc(b1-3)[GlcNAc(b1-3)Gal(b1-4)GlcNAc(b1-3)]GalNAc
# Procedure, shortened: as §1
# [12] = target: GlcNAc(b1-3)Gal(b1-4)GlcNAc(b1-6)[Gal(b1-3)]GalNAc
# Procedure, shortened: as §1
# [13] = target: GlcNAc(b1-3)Gal(b1-4)GlcNAc(b1-6)[GlcNAc(b1-3)Gal(b1-3)]GalNAc
# Procedure, shortened: as §1
# [14] = target: GlcNAc(b1-3)Gal(b1-4)GlcNAc(b1-6)[GlcNAc(b1-3)]Gal(b1-4)GlcNAc
# Procedure, shortened: as §1
# [15] = target: GlcNAc(b1-3)GalNAc
# Procedure, shortened: as §1
# [16] = target: GlcNAc(b1-3)Man
# Procedure, shortened: as §1
# [17] = target: GlcNAc(b1-3)[GlcNAc(b1-4)][GlcNAc(b1-6)]GlcNAc
# Procedure, shortened: as §1
# [18] = target: GlcNAc(b1-3)[GlcNAc(b1-6)]Gal(b1-4)GlcNAc
# Procedure, shortened: as §1
# [19] = target: GlcNAc(b1-3)[GlcNAc(b1-6)]GalNAc
# Procedure, shortened: as §1
# [20] = target: GlcNAc(b1-3)[GlcNAc(b1-6)]GlcNAc(b1-4)GlcNAc
# Procedure, shortened: as §1
# [21] = target: GlcNAc(b1-4)Gal(b1-4)GlcNAc
# Procedure, shortened: as §1
# [22] = target: GlcNAc(b1-4)GlcNAc
# Procedure, shortened: as §1
# [23] = target: GlcNAc(b1-4)GlcNAc(b1-4)GlcNAc
# Procedure, shortened: as §1
# [24] = target: GlcNAc(b1-4)GlcNAc(b1-4)GlcNAc(b1-4)GlcNAc(b1-4)GlcNAc
# Procedure, shortened: as §1
# [25] = target: GlcNAc(b1-4)GlcNAc(b1-4)GlcNAc(b1-4)GlcNAc(b1-4)GlcNAc(b1-4)GlcNAc
# Procedure, shortened: as §1
# [26] = target: GlcNAc(b1-4)[GlcNAc(b1-6)]GalNAc
# Procedure, shortened: as §1
# [27] = target: GlcNAc(b1-6)Gal(b1-4)GlcNAc
# Procedure, shortened: as §1
# [28] = target: GlcNAc(b1-6)GalNAc
# Procedure, shortened: as §1
# [29] = target: GlcNAc6S(b1-3)Gal(b1-4)GlcNAc
# Procedure, shortened: as §1
# [30] = target: Kdn(a2-3)Gal(b1-3)GalNAc
# Procedure, shortened: as §1
# [31] = target: Kdn(a2-3)Gal(b1-3)GlcNAc
# Procedure, shortened: as §1
# [32] = target: Kdn(a2-3)Gal(b1-4)Glc
# Procedure, shortened: as §1
# [33] = target: Kdn(a2-3)Gal(b1-4)GlcNAc
# Procedure, shortened: as §1
# [34] = target: Kdn(a2-3)Gal(b1-4)[Fuc(a1-3)]GlcNAc
# Procedure, shortened: as §1
# [35] = target: Kdn(a2-6)Gal(b1-4)GlcNAc
# Procedure, shortened: as §1
# [36] = target: Man(a1-2)Man(a1-2)Man(a1-3)Man
# Procedure, shortened: as §1
# [37] = target: Man(a1-2)Man(a1-2)Man(a1-6)[Man(a1-3)]Man
# Procedure, shortened: as §1
# [38] = target: Man(a1-2)Man(a1-3)Man
# Procedure, shortened: as §1
# [39] = target: Man(a1-2)Man(a1-3)[Man(a1-2)Man(a1-6)]Man
# Procedure, shortened: as §1
# [40] = target: Man(a1-2)Man(a1-3)[Man(a1-2)Man(a1-6)]Man(a1-6)[Man(a1-2)Man(a1-2)Man(a1-3)]Man
# Procedure, shortened: as §1
# [41] = target: Man(a1-2)Man(a1-3)[Man(a1-2)Man(a1-6)]Man(a1-6)[Man(a1-2)Man(a1-2)Man(a1-3)]Man(b1-4)GlcNAc(b1-4)GlcNAc
# Procedure, shortened: as §1
# [42] = target: Man(a1-2)Man(a1-3)[Man(a1-6)]Man(a1-6)[Man(a1-2)Man(a1-3)]Man(b1-4)GlcNAc(b1-4)GlcNAc
# Procedure, shortened: as §1
# [43] = target: Man(a1-2)Man(a1-6)[Man(a1-3)]Man(a1-6)[Man(a1-2)Man(a1-2)Man(a1-3)]Man
# Procedure, shortened: as §1
# [44] = target: Man(a1-2)Man(a1-6)[Man(a1-3)]Man(a1-6)[Man(a1-2)Man(a1-2)Man(a1-3)]Man(b1-4)GlcNAc(b1-4)GlcNAc
# Procedure, shortened: as §1
# [45] = target: Man(a1-3)[Man(a1-6)]Man
# Procedure, shortened: as §1
binder,measurement,setting,value
B1,glycan array binding signal (z-score),[1],-0.17
same,glycan array binding signal (z-score),[2],-0.16
same,glycan array binding signal (z-score),[3],-0.186
same,glycan array binding signal (z-score),[4],-0.153
same,glycan array binding signal (z-score),[5],-0.152
same,glycan array binding signal (z-score),[6],-0.148
same,glycan array binding signal (z-score),[7],-0.16
same,glycan array binding signal (z-score),[8],-0.124
same,glycan array binding signal (z-score),[9],0.315
same,glycan array binding signal (z-score),[10],0.005
same,glycan array binding signal (z-score),[11],-0.208
same,glycan array binding signal (z-score),[12],-0.204
same,glycan array binding signal (z-score),[13],-0.156
same,glycan array binding signal (z-score),[14],-0.185
same,glycan array binding signal (z-score),[15],1.08
same,glycan array binding signal (z-score),[16],-0.203
same,glycan array binding signal (z-score),[17],-0.199
same,glycan array binding signal (z-score),[18],-0.22
same,glycan array binding signal (z-score),[19],-0.21
same,glycan array binding signal (z-score),[20],-0.264
same,glycan array binding signal (z-score),[21],-0.198
same,glycan array binding signal (z-score),[22],-0.211
same,glycan array binding signal (z-score),[23],-0.143
same,glycan array binding signal (z-score),[24],-0.147
same,glycan array binding signal (z-score),[25],-0.169
same,glycan array binding signal (z-score),[26],-0.216
same,glycan array binding signal (z-score),[27],-0.211
same,glycan array binding signal (z-score),[28],-0.212
same,glycan array binding signal (z-score),[29],-0.201
same,glycan array binding signal (z-score),[30],-0.011
same,glycan array binding signal (z-score),[31],-0.219
same,glycan array binding signal (z-score),[32],-0.188
same,glycan array binding signal (z-score),[33],-0.164
same,glycan array binding signal (z-score),[34],-0.197
same,glycan array binding signal (z-score),[35],-0.201
same,glycan array binding signal (z-score),[36],0.729
same,glycan array binding signal (z-score),[37],2.11
same,glycan array binding signal (z-score),[38],0.529
same,glycan array binding signal (z-score),[39],1.99
same,glycan array binding signal (z-score),[40],1.37
same,glycan array binding signal (z-score),[41],0.293
same,glycan array binding signal (z-score),[42],3.35
same,glycan array binding signal (z-score),[43],2.72
same,glycan array binding signal (z-score),[44],3.81
same,glycan array binding signal (z-score),[45],5.62
